# Results reported in the supplement of paper PMC8728848.
# The other results are listed elsewhere or left out.
# B1: Si Bti9 1b-HA (Solanum lycopersicum) (protein)
# chain: MFESRPRSVLSLGVFVILVYLSSVPLPVNSQCNRGCDLALASFYVWRGSNLTLISEMFSTSIADIVSYNNRDNIPNQDSVIAGTRINIPFRCDCLNDGEVLGHAFPYRVKSGDTYDLVARNYSDLTTAQWMMKFNSYPENNIPNTVNLSVVVNCSCGNSDVSKDFGLFVTYPVRAEDNLTSVASAANVSEDIIRRYNPAAVSILDIGQGIIYIPGRDRNGNFPPLPTSTDGLSGGAKAPLFFNPAFLYKVVELKLAGRSRTSGYPYDVPDYAGYPYDVPDYALEVLFQ
# Key:
# Test in all cases: glycan array binding signal (z-score within array); higher = stronger binding
# Conditions in all cases: glycan notation: IUPAC condensed, linker removed
# [1] = target: Neu5Ac(a2-6)GlcNAc(b1-4)GlcNAc(b1-4)GlcNAc
# Procedure, shortened: (§1)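 The binding signal is a Z-score computed within each array. Data were drawn from 3228 arrays in the Consortium for Functional Glycomics database, restricted to those with a known protein sequence. Scores were averaged over arrays of the same protein sequence at different concentrations or buffers, and over linkers, and negative values can be taken as non-binding.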
# Neu5Ac(a2-8)Neu5Ac = target: Neu5Ac(a2-8)Neu5Ac
# Procedure, shortened: as §1
# [2] = target: Neu5Ac(a2-8)Neu5Ac(a2-3)Gal(b1-3)GalNAc(b1-4)[Neu5Ac(a2-3)]Gal(b1-4)Glc
# Procedure, shortened: as §1
# [3] = target: Neu5Ac(a2-8)Neu5Ac(a2-3)Gal(b1-3)GalNAc(b1-4)[Neu5Ac(a2-8)Neu5Ac(a2-3)]Gal(b1-4)Glc
# Procedure, shortened: as §1
# [4] = target: Neu5Ac(a2-8)Neu5Ac(a2-3)Gal(b1-4)Glc
# Procedure, shortened: as §1
# [5] = target: Neu5Ac(a2-8)Neu5Ac(a2-3)Gal(b1-4)GlcNAc
# Procedure, shortened: as §1
# [6] = target: Neu5Ac(a2-8)Neu5Ac(a2-3)[Gal(b1-3)GalNAc(b1-4)]Gal(b1-4)Glc
# Procedure, shortened: as §1
# [7] = target: Neu5Ac(a2-8)Neu5Ac(a2-3)[GalNAc(b1-4)]Gal(b1-4)Glc
# Procedure, shortened: as §1
# [8] = target: Neu5Ac(a2-8)Neu5Ac(a2-8)Neu5Ac
# Procedure, shortened: as §1
# [9] = target: Neu5Ac(a2-8)Neu5Ac(a2-8)Neu5Ac(a2-3)Gal(b1-4)Glc
# Procedure, shortened: as §1
# [10] = target: Neu5Ac(a2-8)Neu5Ac(a2-8)Neu5Ac(a2-3)[Gal(b1-3)GalNAc(b1-4)]Gal(b1-4)Glc
# Procedure, shortened: as §1
# [11] = target: Neu5Ac(a2-8)Neu5Ac(a2-8)Neu5Ac(a2-3)[GalNAc(b1-4)]Gal(b1-4)Glc
# Procedure, shortened: as §1
# [12] = target: Neu5Ac(a2-8)Neu5Ac(a2-8)Neu5Ac(a2-8)Neu5Ac(a2-3)[GalNAc(b1-4)]Gal(b1-4)Glc
# Procedure, shortened: as §1
# [13] = target: Neu5Ac(a2-8)Neu5Gc(a2-3)Gal(b1-4)GlcNAc
# Procedure, shortened: as §1
# [14] = target: Neu5Ac(b2-6)Gal(b1-4)GlcNAc
# Procedure, shortened: as §1
# Neu5Ac(b2-6)GalNAc = target: Neu5Ac(b2-6)GalNAc
# Procedure, shortened: as §1
# [15] = target: Neu5Ac9Ac(a2-3)Gal(b1-3)GlcNAc
# Procedure, shortened: as §1
# [16] = target: Neu5Ac9Ac(a2-3)Gal(b1-4)GlcNAc
# Procedure, shortened: as §1
# [17] = target: Neu5Ac9Ac(a2-6)Gal(b1-4)GlcNAc
# Procedure, shortened: as §1
# [18] = target: Neu5Gc(a2-3)Gal(b1-3)GlcNAc
# Procedure, shortened: as §1
# [19] = target: Neu5Gc(a2-3)Gal(b1-3)[Fuc(a1-4)]GlcNAc
# Procedure, shortened: as §1
# Neu5Gc(a2-3)Gal(b1-4)Glc = target: Neu5Gc(a2-3)Gal(b1-4)Glc
# Procedure, shortened: as §1
# [20] = target: Neu5Gc(a2-3)Gal(b1-4)GlcNAc
# Procedure, shortened: as §1
# [21] = target: Neu5Gc(a2-3)Gal(b1-4)GlcNAc(b1-3)Gal(b1-4)GlcNAc(b1-2)Man(a1-3)[Neu5Gc(a2-3)Gal(b1-4)GlcNAc(b1-3)Gal(b1-4)GlcNAc(b1-2)Man(a1-6)]Man(b1-4)GlcNAc(b1-4)GlcNAc
# Procedure, shortened: as §1
# [22] = target: Neu5Gc(a2-3)Gal(b1-4)[Fuc(a1-3)]GlcNAc
# Procedure, shortened: as §1
# [23] = target: Neu5Gc(a2-6)Gal(b1-4)GlcNAc
# Procedure, shortened: as §1
# Neu5Gc(a2-6)GalNAc = target: Neu5Gc(a2-6)GalNAc
# Procedure, shortened: as §1
# [24] = target: Neu5Gc(a2-8)Neu5Ac(a2-3)Gal(b1-4)GlcNAc
# Procedure, shortened: as §1
# [25] = target: Neu5Gc(a2-8)Neu5Gc(a2-3)Gal(b1-4)GlcNAc
# Procedure, shortened: as §1
# [26] = target: Neu5Gc(a2-8)Neu5Gc(a2-3)Gal(b1-4)GlcNAc(b1-3)Gal(b1-4)GlcNAc
# Procedure, shortened: as §1
# [27] = target: Neu5Gc(a2-8)Neu5Gc(a2-6)Gal(b1-4)GlcNAc
# Procedure, shortened: as §1
# [28] = target: Neu5Gc(b2-6)Gal(b1-4)GlcNAc
# Procedure, shortened: as §1
binder,measurement,setting,value
B1,glycan array binding signal (z-score),[1],-0.401
same,glycan array binding signal (z-score),Neu5Ac(a2-8)Neu5Ac,-0.251
same,glycan array binding signal (z-score),[2],-0.196
same,glycan array binding signal (z-score),[3],-0.079
same,glycan array binding signal (z-score),[4],0.02
same,glycan array binding signal (z-score),[5],-0.499
same,glycan array binding signal (z-score),[6],-0.273
same,glycan array binding signal (z-score),[7],-0.411
same,glycan array binding signal (z-score),[8],-0.43
same,glycan array binding signal (z-score),[9],-0.184
same,glycan array binding signal (z-score),[10],-0.014
same,glycan array binding signal (z-score),[11],-0.298
same,glycan array binding signal (z-score),[12],-0.344
same,glycan array binding signal (z-score),[13],-0.539
same,glycan array binding signal (z-score),[14],-0.106
same,glycan array binding signal (z-score),Neu5Ac(b2-6)GalNAc,-0.222
same,glycan array binding signal (z-score),[15],0.769
same,glycan array binding signal (z-score),[16],-0.425
same,glycan array binding signal (z-score),[17],0.888
same,glycan array binding signal (z-score),[18],-0.505
same,glycan array binding signal (z-score),[19],-0.521
same,glycan array binding signal (z-score),Neu5Gc(a2-3)Gal(b1-4)Glc,-0.117
same,glycan array binding signal (z-score),[20],-0.219
same,glycan array binding signal (z-score),[21],0.133
same,glycan array binding signal (z-score),[22],-0.427
same,glycan array binding signal (z-score),[23],0.078
same,glycan array binding signal (z-score),Neu5Gc(a2-6)GalNAc,-0.192
same,glycan array binding signal (z-score),[24],-0.4
same,glycan array binding signal (z-score),[25],-0.54
same,glycan array binding signal (z-score),[26],-0.452
same,glycan array binding signal (z-score),[27],-0.528
same,glycan array binding signal (z-score),[28],-0.472
